{"source": "PubChem BioAssay AID1476", "about": "(National Center for Advancing Translational Sciences (NCATS), 2009)", "note": "Several values for one entry are separate records, joined by “and”; a condition that tells them apart may be missing. Identical values can stand only once. The campaign covered roughly 200,000 compounds. About 4,500 (2.2%) were called active. The shares of active, inactive and inconclusive entries below differ from those in the screen. Calls follow the shape of the dose curve; as a rule, active = well fitted inhibition curve with a large enough effect; inconclusive = small, poorly fitted or top-dose-only effect, or effect the other way; inactive = flat fitted curve, though single readings scatter. Potencies beside an inconclusive call are fits to weak or partial responses and may not hold up. Potency is read from the fitted curve at half-maximal effect; tags tell the direction and shape of the fitted curve."}
{"biological_target": "Cruzipain (Trypanosoma cruzi) (UniProt P25779)", "sequence (P25779 whole entry, looked up)": "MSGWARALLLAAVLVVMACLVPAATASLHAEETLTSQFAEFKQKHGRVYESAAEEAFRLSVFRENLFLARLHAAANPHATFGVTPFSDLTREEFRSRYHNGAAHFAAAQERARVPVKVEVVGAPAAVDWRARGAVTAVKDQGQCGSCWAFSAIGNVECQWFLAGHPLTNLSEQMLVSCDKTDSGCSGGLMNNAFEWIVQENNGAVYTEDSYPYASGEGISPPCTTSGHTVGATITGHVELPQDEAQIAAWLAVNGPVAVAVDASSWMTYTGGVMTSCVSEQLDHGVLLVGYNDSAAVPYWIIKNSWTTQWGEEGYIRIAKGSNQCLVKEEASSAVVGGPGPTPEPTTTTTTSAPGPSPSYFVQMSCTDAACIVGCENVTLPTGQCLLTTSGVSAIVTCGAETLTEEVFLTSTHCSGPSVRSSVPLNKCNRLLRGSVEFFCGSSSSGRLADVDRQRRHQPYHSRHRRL", "test": "qHTS Assay for Promiscuous and Specific Inhibitors of Cruzain (without detergent); also: nearly all actives have a fitted effect of over 40% in size;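 as to max response, negative = inhibition: plate controls were enzyme without inhibitor for no effect and buffer without enzyme for full effect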", "details": "purified cruzain, Z-FR-AMC fluorescence, no detergent", "summary_of_the_method": "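Detergent-free condition (0.00005% Triton X-100) in acetate buffer pH 5.5 with DTT. 1.5 nM enzyme and compound were pre-mixed 15 min, then 2 uM Z-FR-AMC substrate added; reaction progress from fluorescence change between first and third reads (60 s).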"}
{"smiles": "COc1ccccc1Nc1nc(-c2sc(NC(=O)c3ccc([N+](=O)[O-])cc3)nc2C)cs1", "Potency": "active: 3.98 µM"}
{"smiles": "NC(=O)Cn1c(=O)n(CCc2ccccc2)c(=O)c2c3c(sc21)CCCC3", "Potency": "inconclusive: 39.8 µM [inhibitor, single point]"}
{"smiles": "O=C(CSc1nc2ccccc2o1)c1cc2ccccc2oc1=O", "Potency": "inconclusive: 31.6 µM [inhibitor, single point]"}
{"smiles": "Nc1ccc2nc(-c3ccc(Cl)cc3)[nH]c2c1", "Potency": "active: 20 µM"}
{"smiles": "O=C(CSc1nc2ccccc2c(=O)n1-c1ccccc1)c1c[nH]c2ccccc12", "Potency": "inconclusive: 39.8 µM [inhibitor, single point]"}
{"smiles": "O=C(NC(Cc1c[nH]c2ccccc12)C(=O)O)c1ccccc1", "note": "(configuration not stated)", "max response, negative = inhibition": "inactive: -8%"}
{"smiles": "Cc1ccc(NC(=O)Cc2ccc(-n3cccc3)cc2)c(C)c1", "Potency": "inconclusive: 39.8 µM [inhibitor, single point]"}
{"smiles": "CN1CCN(c2ncc3nc(-c4ccc(Cl)cc4)c(=O)n(Cc4ccc(F)cc4)c3n2)CC1", "Potency": "inconclusive: 31.6 µM [activator, single point]"}
{"smiles": "O=c1oc2c(CN3CCCCC3)c(O)ccc2c2c1CCCCC2", "Potency": "inconclusive: 39.8 µM [inhibitor, single point]"}
{"smiles": "CCCCC(C)(O)C/C=C/[C@H]1[C@H](O)CC(=O)[C@@H]1CCCCCCC(=O)OC", "note": "(some centres not stated)", "Potency": "inconclusive: 31.6 µM [activator, single point] and inconclusive: 20 µM [activator, partial curve]"}
{"smiles": "O=C(c1ccco1)N1CCN(C(=O)C2CCCc3c2[nH]c2ccc(Cl)cc32)CC1", "note": "(configuration not stated)", "Potency": "inconclusive: 31.6 µM [activator, single point]"}
{"smiles": "CC(CNC(=O)C(C)(C)C)NC(=O)C(C)(C)C", "note": "(configuration not stated)", "Potency": "active: 5.01 µM"}
{"smiles": "Cc1nc2ccccc2c2oc(C(=O)NCc3ccc4c(c3)OCO4)cc12", "Potency": "inconclusive: 39.8 µM [activator, single point]"}
{"smiles": "CCOC(=O)c1c(-c2ccccc2)oc2ccc(OC(=O)N(C)C)cc12", "Potency": "inconclusive: 39.8 µM [activator, single point]"}
{"smiles": "c1ccc(CNc2ccc(CNc3ncn[nH]3)cc2)cc1", "max response, negative = inhibition": "inactive: 9.47%"}
{"smiles": "COc1ccccc1CNc1ncnc2onc(-c3ccc(Cl)cc3)c12", "max response, negative = inhibition": "inactive: 14.8%"}
{"smiles": "COc1ccc(-n2c(COc3cccc(C)c3)nnc2SCC(=O)NCc2ccco2)cc1", "Potency": "inconclusive: 25.1 µM [activator, single point]"}
{"smiles": "CCCCCCn1c(CN2CCN(C(=O)c3ccco3)CC2)nc2c1c(=O)n(C)c(=O)n2C", "Potency": "inconclusive: 31.6 µM [activator, single point]"}
{"smiles": "COc1cc(NC(=O)c2cc(-c3ccco3)on2)c(OC)cc1Cl", "Potency": "active: 10 µM"}
{"smiles": "N#CC(Cl)Cl", "max response, negative = inhibition": "inactive: -10.8%"}
{"smiles": "CCCCC/C=C\\C\\C=C/C=C/C=C/[C@@H](SCC(NC(C)=O)C(=O)O)[C@@H](O)CCCC(=O)O", "note": "(some centres not stated)", "max response, negative = inhibition": "inactive: 3.87%"}
{"smiles": "Cc1cc(C)nc(NC(=NCCc2c[nH]c3ccccc23)NC(=O)Nc2ccc(Cl)c(Cl)c2)n1", "Potency": "active: 7.94 µM"}
{"smiles": "COc1ccc(-c2nnc(SCC(=O)c3cccs3)n2-c2ccc(Cl)cc2)cc1", "Potency": "inconclusive: 39.8 µM [activator, single point]"}
{"smiles": "CCOC(=O)c1cc(-c2ccco2)nc2c1c(C)nn2CCC#N", "Potency": "inconclusive: 31.6 µM [activator, partial curve]"}
{"smiles": "COCCNC(=O)[C@H](C)[C@@H]1C[C@@]1(C)[C@@H](NC(=O)OCc1ccccc1)c1ccccc1", "Potency": "inconclusive: 39.8 µM [activator, single point]"}
{"smiles": "COc1ccc(OC)c(NC(=O)CCCOc2cc(=O)n(C)c3ccccc23)c1", "Potency": "inconclusive: 39.8 µM [activator, single point]"}
{"smiles": "Cc1ccc(-n2c3c(c(=O)[nH]c2=O)C(NC(=O)C(C)(C)C)(C(F)(F)F)C(=O)N3)cc1", "note": "(configuration not stated)", "max response, negative = inhibition": "inactive: 10.1%"}
{"smiles": "CN(C)c1ccc(/C=N/NC(=O)CN2CCN(c3ccc(F)cc3)CC2)cc1", "Potency": "inconclusive: 25.1 µM [inhibitor, single point]"}
{"smiles": "COc1nc(OC)nc(N2CCC(NC(=O)C(Cc3ccc(C(C)C)cc3)NC(C)=O)CC2)n1", "note": "(configuration not stated)", "Potency": "inconclusive: 31.6 µM [activator, partial curve]"}
{"smiles": "Nc1scc2c(C(=O)N/N=C/c3ccc(Cl)cc3)nn(-c3ccccc3)c(=O)c12", "Potency": "inconclusive: 31.6 µM [inhibitor, single point]"}
{"smiles": "Fc1ccc2nc(-c3ccccc3)nc(SCc3nnc(-c4ccccc4)o3)c2c1", "Potency": "inconclusive: 31.6 µM [inhibitor, single point]"}
{"smiles": "CC(C)(C)c1ccc(S(=O)(=O)NCC(=O)Nc2ccc(-c3nc4ccccc4s3)cc2)cc1", "Potency": "inconclusive: 39.8 µM [inhibitor, single point]"}
{"smiles": "CN1C(=O)C(c2nnc(Nc3cccc4ccccc34)s2)C2CC1(C)Oc1ccccc12", "note": "(configuration not stated)", "Potency": "inconclusive: 31.6 µM [inhibitor, single point]"}
{"smiles": "NS(=O)(=O)c1ccc(CCNC(=O)Cn2c(=O)c3cccn3c3ccc(F)cc32)cc1", "max response, negative = inhibition": "inactive: 11.3%"}
{"smiles": "N#C/C(=C\\c1ccc(N2CCCC2)c([N+](=O)[O-])c1)c1nc2ccccc2[nH]1", "Potency": "inconclusive: 31.6 µM [inhibitor, single point]"}
{"smiles": "Brc1cccc(-c2nnc(SCc3nc4ccccc4[nH]3)o2)c1", "Potency": "active: 12.6 µM"}
{"smiles": "CCOC(=O)/C(N=Nc1ccc(Cl)cc1)=C(/O)c1ccc([N+](=O)[O-])cc1", "Potency": "inconclusive: 3.16 µM [inhibitor, full curve, poor fit]"}
{"smiles": "Cc1nn2c(=O)cc(COC(=O)c3ccccc3NC(=O)C3CCCCC3)nc2s1", "max response, negative = inhibition": "inactive: 19.1%"}
{"smiles": "CCN(CC)C(=O)CSc1nc2ccccc2o1", "Potency": "active: 3.16 µM"}
{"smiles": "O=C(c1cccc(F)c1)N1CCC2(CC1)CN(c1ncccn1)C2", "max response, negative = inhibition": "inactive: -9.15%"}
{"smiles": "COc1cc2cc3c(N)c(C(=O)NCc4ccco4)sc3nc2cc1OC", "Potency": "inconclusive: 39.8 µM [activator, single point]"}
{"smiles": "CC(=O)c1cccc(NC(=O)C(OC(=O)c2cccc(S(=O)(=O)N(C)c3ccccc3)c2)c2ccccc2)c1", "note": "(configuration not stated)", "Potency": "active: 25.1 µM"}
